Test results as given in patent US20230250147A1, “GLP-1R AGONISTIC PEPTIDES WITH REDUCED ACTIVITY” (SANOFI, priority 2020, published 2023).

T1: Mouse GLP-1R (Mus musculus, UniProt O35659)
T1 construct: expressed in transfected cells; host or cells: HEK-293
T1 sequence (O35659 22-463): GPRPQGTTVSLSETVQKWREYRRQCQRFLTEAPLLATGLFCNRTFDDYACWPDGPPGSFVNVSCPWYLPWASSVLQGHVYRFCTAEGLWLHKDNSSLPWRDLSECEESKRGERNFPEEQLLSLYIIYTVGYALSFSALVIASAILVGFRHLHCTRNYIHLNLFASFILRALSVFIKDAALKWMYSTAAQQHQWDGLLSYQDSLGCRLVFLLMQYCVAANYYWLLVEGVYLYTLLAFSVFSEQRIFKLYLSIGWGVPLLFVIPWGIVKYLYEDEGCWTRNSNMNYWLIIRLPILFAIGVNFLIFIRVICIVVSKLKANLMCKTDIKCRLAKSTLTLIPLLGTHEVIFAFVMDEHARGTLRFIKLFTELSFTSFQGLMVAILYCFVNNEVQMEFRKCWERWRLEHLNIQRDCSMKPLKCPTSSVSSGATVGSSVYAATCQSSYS

B1: 27 (protein)
chain: HGEGTFTSDLSILLDEEAVRLFIEWLLATGPVSGAPPPSGGGGGGGSGGGGSGGGGSA[… human IgG4 Fc with changes …]GGGSGSAHPIPDSSPLLQFGGQVRQRYLYTDDACQTEAHLEIREDGTVGGAADQSPESLLQLKALKPGVIQILGVKTSRFLCQRPDGALYGSLHFDPEACSFRELLLEDGYNVYQSEAHGLPLHLPGCKSPHRDPAPRGPARFLPLPGLPPAPPEPPGILAPQPPDVGSSDPLSMVYPSQGRSPSYAS
modifications: Fusion Protein
B2: 45 (protein)
chain: HGEGTFTSDLSIQLDEEAVRLFIEWLEATGPVSGAPPPSGGGGGGGSGGGGSGGGGSA[… human IgG1 Fc with changes …]GGGSGSAHPIPDSSPLLQFGGQVRQRYLYTDDACQTEAHLEIREDGTVGGAADQSPESLLQLKALKPGVIQILGVKTSRFLCQRPDGALYGSLHFDPEACSFRELLLEDGYNVYQSEAHGLPLHLPGCKSPHRDPAPRGPARFLPLPGLPPAPPEPPGILAPQPPDVGSSDPLSMVYPSQGRSPSYAS
modifications: Fusion Protein
B3: 52 (protein)
chain: HGEGTFTSDLSKQLEEEAVQLFIEWLLATGPSSGEPPPKGGGGGGGSGGGGSGGGGSA[… human IgG4 Fc with changes …]GGGSGSAHPIPDSSPLLQFGGQVRQRYLYTDDACQTEAHLEIREDGTVGGAADQSPESLLQLKALKPGVIQILGVKTSRFLCQRPDGALYGSLHFDPEACSFRELLLEDGYNVYQSEAHGLPLHLPGCKSPHRDPAPRGPARFLPLPGLPPAPPEPPGILAPQPPDVGSSDPLSMVYPSQGRSPSYAS
modifications: Fusion Protein
B4: 29 (protein)
chain: HGEGTFTSDLSILLDEEAVREFIEWLLATGPVSGAPPPSGGGGGGGSGGGGSGGGGSA[… human IgG4 Fc with changes …]GGGSGSAHPIPDSSPLLQFGGQVRQRYLYTDDACQTEAHLEIREDGTVGGAADQSPESLLQLKALKPGVIQILGVKTSRFLCQRPDGALYGSLHFDPEACSFRELLLEDGYNVYQSEAHGLPLHLCGNKSPHRDPAPRGPARFLPLPGLPPAPPEPPGILAPQPPDVGSSDPLSMVYPSQGRSPSYAS
modifications: Fusion Protein
B5: 50 (protein)
chain: HGEGTFTSDLSKQLEEEAVQLFIEWLLATGPSSGKPPPKGGGGGGGSGGGGSGGGGSA[… human IgG4 Fc with changes …]GGGSGSAHPIPDSSPLLQFGGQVRQRYLYTDDACQTEAHLEIREDGTVGGAADQSPESLLQLKALKPGVIQILGVKTSRFLCQRPDGALYGSLHFDPEACSFRELLLEDGYNVYQSEAHGLPLHLPGCKSPHRDPAPRGPARFLPLPGLPPAPPEPPGILAPQPPDVGSSDPLSMVYPSQGRSPSYAS
modifications: Fusion Protein
B6: 51 (protein)
chain: HGEGTFTSDLSKQLEEEAVQLFIEWLLATGPSSGKPPPEGGGGGGGSGGGGSGGGGSA[… human IgG4 Fc with changes …]GGGSGSAHPIPDSSPLLQFGGQVRQRYLYTDDACQTEAHLEIREDGTVGGAADQSPESLLQLKALKPGVIQILGVKTSRFLCQRPDGALYGSLHFDPEACSFRELLLEDGYNVYQSEAHGLPLHLPGCKSPHRDPAPRGPARFLPLPGLPPAPPEPPGILAPQPPDVGSSDPLSMVYPSQGRSPSYAS
modifications: Fusion Protein
B7: 31 (protein)
chain: HGEGTFTSDLSILLDEEAVREFIEWLLATGPVSGAPPPSGGGGGGGSGGGGSGGGGSA[… human IgG4 Fc with changes …]GGGSGSAHPIPDSSPLLQFGGQVRQRYLYTDDACQTEAHLEIREDGTVGGAADQSPESLLQLKALKPGVIQILGVKTSRFLCQRPDGALYGSLHFDPEACSFRELLLEDGYNVYQSEAHGLPLHLPGCKSPHRDPAPRGPARFLPLPGLPPAPPEPPGILAPQPPDVGSSDPLSMVYPSQGRSPSYAS
modifications: Fusion Protein
B8: 53 (protein)
chain: HGEGTFTSDKSKQLDEQRAKEFIEWLKAGGHPSGKPPPKGGGGGGGSGGGGSGGGGSA[… human IgG4 Fc with changes …]GGGSGSAHPIPDSSPLLQFGGQVRQRYLYTDDACQTEAHLEIREDGTVGGAADQSPESLLQLKALKPGVIQILGVKTSRFLCQRPDGALYGSLHFDPEACSFRELLLEDGYNVYQSEAHGLPLHLPGCKSPHRDPAPRGPARFLPLPGLPPAPPEPPGILAPQPPDVGSSDPLSMVGSQGRSPSYAS
modifications: Fusion Protein
B9: 47 (protein)
chain: HGEGTFTSDLSKQLEEEAVQLFIEWLLATGPSSGKPPPKSGGGGGGGSGGGGSGGGGSA[… human IgG4 Fc with changes …]GGGSGSAHPIPDSSPLLQFGGQVRQRYLYTDDACQTEAHLEIREDGTVGGAADQSPESLLQLKALKPGVIQILGVKTSRFLCQRPDGALYGSLHFDPEACSFRELLLEDGYNVYQSEAHGLPLHLPGCKSPHRDPAPRGPARFLPLPGLPPAPPEPPGILAPQPPDVGSSDPLSMVYPSQGRSPSYAS
modifications: Fusion Protein
B10: 48 (protein)
chain: HGEGTFTSDLSKQLEEEAVQLFIEWLLATGPSSGKPPPESGGGGGGGSGGGGSGGGGSA[… human IgG4 Fc with changes …]GGGSGSAHPIPDSSPLLQFGGQVRQRYLYTDDACQTEAHLEIREDGTVGGAADQSPESLLQLKALKPGVIQILGVKTSRFLCQRPDGALYGSLHFDPEACSFRELLLEDGYNVYQSEAHGLPLHLPGCKSPHRDPAPRGPARFLPLPGLPPAPPEPPGILAPQPPDVGSSDPLSMVYPSQGRSPSYAS
modifications: Fusion Protein
B11: 49 (protein)
chain: HGEGTFTSDLSKQLEEEAVQLFIEWLLATGPSSGEPPPKSGGGGGGGSGGGGSGGGGSA[… human IgG4 Fc with changes …]GGGSGSAHPIPDSSPLLQFGGQVRQRYLYTDDACQTEAHLEIREDGTVGGAADQSPESLLQLKALKPGVIQILGVKTSRFLCQRPDGALYGSLHFDPEACSFRELLLEDGYNVYQSEAHGLPLHLPGCKSPHRDPAPRGPARFLPLPGLPPAPPEPPGILAPQPPDVGSSDPLSMVYPSQGRSPSYAS
modifications: Fusion Protein
B12: 54 (protein)
chain: GHGEGTFTSDKSKQLEEEAVRLFIEWLKAGGHPSGKPPPKGGGGGGGSGGGGSGGGGSA[… human IgG4 Fc with changes …]GGGSGSAHPIPDSSPLLQFGGQVRQRYLYTDDACQTEAHLEIREDGTVGGAADQSPESLLQLKALKPGVIQILGVKTSRFLCQRPDGALYGSLHFDPEACSFRELLLEDGYNVYQSEAHGLPLHLPGCKSPHRDPAPRGPARFLPLPGLPPAPPEPPGILAPQPPDVGSSDPLSMVGSQGRSPSYAS
modifications: Fusion Protein
B13: 26 (protein)
chain: HGEGTFTSDLSILLDEEAVRLFIEWLLATGPVSGAPPPSGGGGGGGSGGGGSGGGGSA[… human IgG4 Fc with changes …]GGGSGSAHPIPDSSPLLQFGGQVRQRYLYTDDACQTEAHLEIREDGTVGGAADQSPESLLQLKALKPGVIQILGVKTSRFLCQRPDGALYGSLHFDPEACSFRELLLEDGYNVYQSEAHGLPLHLPGCKSPHRDPAPRGPARFLPLPGLPPAPPEPPGILAPQPPDVGSSDPLSMVGSQGRSPSYAS
modifications: Fusion Protein
B14: 28 (protein)
chain: HGEGTFTSDLSILLDEEAVREFIEWLLATGPVSGAPPPSGGGGGGGSGGGGSGGGGSA[… human IgG4 Fc with changes …]GGGSGSAHPIPDSSPLLQFGGQVRQRYLYTDDACQTEAHLEIREDGTVGGAADQSPESLLQLKALKPGVIQILGVKTSRFLCQRPDGALYGSLHFDPEACSFRELLLEDGYNVYQSEAHGLPLHLCGNKSPHRDPAPRGPARFLPLPGLPPAPPEPPGILAPQPPDVGSSDPLSMVGSQGRSPSYAS
modifications: Fusion Protein
B15: 30 (protein)
chain: HGEGTFTSDLSILLDEEAVREFIEWLLATGPVSGAPPPSGGGGGGGSGGGGSGGGGSA[… human IgG4 Fc with changes …]GGGSGSAHPIPDSSPLLQFGGQVRQRYLYTDDACQTEAHLEIREDGTVGGAADQSPESLLQLKALKPGVIQILGVKTSRFLCQRPDGALYGSLHFDPEACSFRELLLEDGYNVYQSEAHGLPLHLPGCKSPHRDPAPRGPARFLPLPGLPPAPPEPPGILAPQPPDVGSSDPLSMVGSQGRSPSYAS
modifications: Fusion Protein
B16: 42 (protein)
chain: HGEGTFTSDLSIQLDEEAVRLFIEWLLATGPVSGAPPPSGGGGGGGSGGGGSGGGGSA[… human IgG1 Fc with changes …]GGGSGSAHPIPDSSPLLQFGGQVRQRYLYTDDACQTEAHLEIREDGTVGGAADQSPESLLQLKALKPGVIQILGVKTSRFLCQRPDGALYGSLHFDPEACSFRELLLEDGYNVYQSEAHGLPLHLPGCKSPHRDPAPRGPARFLPLPGLPPAPPEPPGILAPQPPDVGSSDPLSMVGSQGRSPSYAS
modifications: Fusion Protein
B17: 46 (protein)
chain: HGEGTFTSDLSILLDEEAVREFIEWLLATGPVSGAPPPSGGGGGGGSGGGGSGGGGSA[… human IgG1 Fc with changes …]GGGSGSAHPIPDSSPLLQFGGQVRQRYLYTDDACQTEAHLEIREDGTVGGAADQSPESLLQLKALKPGVIQILGVKTSRFLCQRPDGALYGSLHFDPEACSFRELLLEDGYNVYQSEAHGLPLHLPGCKSPHRDPAPRGPARFLPLPGLPPAPPEPPGILAPQPPDVGSSDPLSMVGSQGRSPSYAS
modifications: Fusion Protein
B18: 44 (protein)
chain: HGEGTFTSDLSIQLDEEAVRLFIEWLEATGPVSGAPPPSGGGGGGGSGGGGSGGGGSA[… human IgG1 Fc with changes …]GGGSGSAHPIPDSSPLLQFGGQVRQRYLYTDDACQTEAHLEIREDGTVGGAADQSPESLLQLKALKPGVIQILGVKTSRFLCQRPDGALYGSLHFDPEACSFRELLLEDGYNVYQSEAHGLPLHLPGCKSPHRDPAPRGPARFLPLPGLPPAPPEPPGILAPQPPDVGSSDPLSMVGSQGRSPSYAS
modifications: Fusion Protein
B19: 43 (protein)
chain: HGEGTFTSDLSILLDEEAVRLFIEWLLATGPVSGAPPPSGGGGGGGSGGGGSGGGGSA[… human IgG1 Fc with changes …]GGGSGSAHPIPDSSPLLQFGGQVRQRYLYTDDACQTEAHLEIREDGTVGGAADQSPESLLQLKALKPGVIQILGVKTSRFLCQRPDGALYGSLHFDPEACSFRELLLEDGYNVYQSEAHGLPLHLPGCKSPHRDPAPRGPARFLPLPGLPPAPPEPPGILAPQPPDVGSSDPLSMVGSQGRSPSYAS
modifications: Fusion Protein

What follows are molecules tested against T2, Human GLP-1R (Homo sapiens, UniProt P43220) (assay: HTRF cAMP assay in HEK-293 cells, human GLP-1R).
T2 construct: expressed in transfected cells; host or cells: HEK-293
Format: cell-based

T2 sequence (P43220 24-463): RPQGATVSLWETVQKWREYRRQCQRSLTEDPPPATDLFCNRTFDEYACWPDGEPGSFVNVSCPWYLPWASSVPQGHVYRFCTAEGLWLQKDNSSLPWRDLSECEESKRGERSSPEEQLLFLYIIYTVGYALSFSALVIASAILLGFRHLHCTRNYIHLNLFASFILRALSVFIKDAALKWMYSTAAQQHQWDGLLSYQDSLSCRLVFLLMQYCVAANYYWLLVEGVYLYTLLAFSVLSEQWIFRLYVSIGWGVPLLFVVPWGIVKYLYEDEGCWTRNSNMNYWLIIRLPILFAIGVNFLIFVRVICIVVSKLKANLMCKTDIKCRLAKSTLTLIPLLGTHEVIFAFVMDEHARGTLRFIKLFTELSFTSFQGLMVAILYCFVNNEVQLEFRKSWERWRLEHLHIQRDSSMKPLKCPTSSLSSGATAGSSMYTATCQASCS

| EC50 | Molecule |
| --- | --- |
| 37.5 pM | B1 |
| 48.2 pM | B2 |
| 25.6 pM | B3 |
| 37.7 pM | B4 |
| 20.5 pM | B5 |
| 26.8 pM | B6 |
| 32.3 pM | B7 |
| 28.4 pM | B8 |
| 17 pM | B9 |
| 35.7 pM | B10 |
| 23.4 pM | B11 |
| 107 pM | B12 |
| 40.1 pM | B13 |
| 32.9 pM | B14 |
| 42 pM | B15 |
| 18.1 pM | B16 |
| 8.47 pM | B17 |
| 126 pM | B18 |
| 13.7 pM | B19 |

These molecules were tested against T3, Monkey GLP-1R (Macaca fascicularis, UniProt F8V479) (assay: HTRF cAMP assay in HEK-293 cells, monkey GLP-1R).
T3 construct: expressed in transfected cells; host or cells: HEK-293
Format: cell-based

T3 sequence (F8V479 24-463): as the sequence (P43220 24-463) above, with S112N, F120S, S202G, L205V, L237F, W241R, I249V counted along it

| EC50 | Molecule |
| --- | --- |
| 75.1 pM | B1 |
| 60.4 pM | B2 |
| 46 pM | B3 |
| 64 pM | B4 |
| 38.2 pM | B5 |
| 51.1 pM | B6 |
| 62.8 pM | B7 |
| 25 pM | B8 |
| 35.6 pM | B9 |
| 60.6 pM | B10 |
| 42.2 pM | B11 |
| 97.4 pM | B12 |
| 73.3 pM | B13 |
| 68.7 pM | B14 |
| 73.3 pM | B15 |
| 22.2 pM | B16 |
| 11.4 pM | B17 |
| 174 pM | B18 |
| 17.4 pM | B19 |

The molecules below were run against T1, Mouse GLP-1R (assay: HTRF cAMP assay in HEK-293 cells, mouse GLP-1R).
Format: cell-based

| EC50 | Molecule |
| --- | --- |
| 91 pM | B1 |
| 492 pM | B2 |
| 7.04 pM | B3 |
| 113 pM | B4 |
| 7.87 pM | B5 |
| 7.58 pM | B6 |
| 113 pM | B7 |
| 128 pM | B8 |
| 6.64 pM | B9 |
| 10.1 pM | B10 |
| 6.65 pM | B11 |
| 119 pM | B12 |
| 95.3 pM | B13 |
| 107 pM | B14 |
| 125 pM | B15 |
| 43.2 pM | B16 |
| 17.9 pM | B17 |
| 325 pM | B18 |
| 31.5 pM | B19 |
